The target in test [1] is T1, GST-Tceal7 (1–98) (mouse) (UniProt A3KGA4).
T1 sequence: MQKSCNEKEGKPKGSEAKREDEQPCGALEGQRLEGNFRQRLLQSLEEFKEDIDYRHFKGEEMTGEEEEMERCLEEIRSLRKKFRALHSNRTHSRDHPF
In words: pull-down; 10 μg GST-Tceal7 or its deletions bound to GST-tag resin beads, incubated with HEK293T cell lysate overexpressing 6×Myc tagged Cyclin or Cdk protein for 2 h at 4 °C; washed thrice with PBS, 10% glycerol, 1% Triton X-100; western blot with anti-Myc antibody; only the target purified. A general note: In western blotting, separated proteins are transferred to a membrane and probed.

Sequences of proteins named here, by UniProt entry; tags and fusion partners are left off. A change or cut given only in a name is not applied to a line headed by its entry.
UniProt Q64261: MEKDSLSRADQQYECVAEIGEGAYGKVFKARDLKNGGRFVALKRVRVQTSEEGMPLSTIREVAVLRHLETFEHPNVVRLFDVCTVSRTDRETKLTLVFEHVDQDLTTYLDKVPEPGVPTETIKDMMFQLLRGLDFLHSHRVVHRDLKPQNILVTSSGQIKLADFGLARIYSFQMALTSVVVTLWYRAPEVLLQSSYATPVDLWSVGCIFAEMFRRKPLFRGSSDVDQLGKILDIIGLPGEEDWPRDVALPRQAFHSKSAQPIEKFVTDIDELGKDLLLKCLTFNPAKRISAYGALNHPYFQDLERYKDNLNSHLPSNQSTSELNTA
UniProt P51943: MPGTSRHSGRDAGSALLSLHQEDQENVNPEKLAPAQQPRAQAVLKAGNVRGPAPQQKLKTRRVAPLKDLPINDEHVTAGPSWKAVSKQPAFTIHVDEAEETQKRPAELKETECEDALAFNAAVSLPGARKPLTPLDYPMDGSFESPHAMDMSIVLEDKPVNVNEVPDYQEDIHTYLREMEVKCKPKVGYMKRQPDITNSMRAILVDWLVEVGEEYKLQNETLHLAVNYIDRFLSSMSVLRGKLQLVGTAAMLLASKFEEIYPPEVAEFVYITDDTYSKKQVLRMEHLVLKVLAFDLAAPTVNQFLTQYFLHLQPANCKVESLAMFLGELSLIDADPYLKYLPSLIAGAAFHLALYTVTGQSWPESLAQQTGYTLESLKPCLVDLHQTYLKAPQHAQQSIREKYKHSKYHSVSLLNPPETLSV
UniProt P24860: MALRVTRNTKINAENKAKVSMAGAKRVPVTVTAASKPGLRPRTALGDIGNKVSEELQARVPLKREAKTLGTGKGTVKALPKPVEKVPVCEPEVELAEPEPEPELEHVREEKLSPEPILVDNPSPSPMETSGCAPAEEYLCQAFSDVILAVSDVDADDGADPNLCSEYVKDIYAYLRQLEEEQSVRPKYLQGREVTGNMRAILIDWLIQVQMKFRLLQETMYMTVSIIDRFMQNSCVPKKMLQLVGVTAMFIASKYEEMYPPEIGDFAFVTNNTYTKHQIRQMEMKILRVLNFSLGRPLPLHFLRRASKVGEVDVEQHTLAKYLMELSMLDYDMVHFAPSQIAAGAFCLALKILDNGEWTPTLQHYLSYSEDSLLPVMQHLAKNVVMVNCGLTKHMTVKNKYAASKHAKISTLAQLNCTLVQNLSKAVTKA
UniProt P25322: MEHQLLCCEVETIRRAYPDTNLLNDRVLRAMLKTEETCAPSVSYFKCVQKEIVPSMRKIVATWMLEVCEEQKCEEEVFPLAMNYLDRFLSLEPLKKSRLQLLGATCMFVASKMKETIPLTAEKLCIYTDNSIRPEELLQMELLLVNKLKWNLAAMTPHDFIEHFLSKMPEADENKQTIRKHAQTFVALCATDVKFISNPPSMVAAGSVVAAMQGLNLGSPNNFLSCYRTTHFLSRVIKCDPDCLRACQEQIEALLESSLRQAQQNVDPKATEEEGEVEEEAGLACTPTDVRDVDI
UniProt P11440: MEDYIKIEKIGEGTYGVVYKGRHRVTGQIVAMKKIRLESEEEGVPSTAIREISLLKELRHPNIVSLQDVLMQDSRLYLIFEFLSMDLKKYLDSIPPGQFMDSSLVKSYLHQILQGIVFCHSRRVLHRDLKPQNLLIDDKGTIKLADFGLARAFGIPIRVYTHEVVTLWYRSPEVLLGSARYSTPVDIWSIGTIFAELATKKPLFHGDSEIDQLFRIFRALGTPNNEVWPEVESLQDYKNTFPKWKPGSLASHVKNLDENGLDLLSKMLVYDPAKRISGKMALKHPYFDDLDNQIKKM

The target of the next test is T2, 3×HA-Tceal7 (mouse) (UniProt A3KGA4).
T2 sequence: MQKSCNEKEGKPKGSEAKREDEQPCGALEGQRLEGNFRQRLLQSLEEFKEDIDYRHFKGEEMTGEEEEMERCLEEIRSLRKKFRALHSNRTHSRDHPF
As to the kind of experiment: co-IP; HEK293T cells co-transfected with 3×HA-Tceal7 and 6×Myc-Cdk1 for 24 h; lysate incubated with anti-HA antibody or Rat IgG control overnight at 4 °C, protein A/G agarose 2 h; western blot with anti-Myc antibody.

Test [2] addresses T3, GST-Tceal7-C (77–98) (mouse) (UniProt A3KGA4).
T3 sequence: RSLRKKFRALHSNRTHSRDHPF
In words: pull-down; 10 μg GST-Tceal7 or its deletions bound to GST-tag resin beads, incubated with HEK293T cell lysate overexpressing 6×Myc tagged Cyclin or Cdk protein for 2 h at 4 °C; washed thrice with PBS, 10% glycerol, 1% Triton X-100; western blot with anti-Myc antibody; only the target purified.

For test [3], the target named is T4, GST-Tceal7-M (34–76) (mouse) (UniProt A3KGA4).
T4 sequence: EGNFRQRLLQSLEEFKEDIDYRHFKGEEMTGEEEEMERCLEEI
Described as above.

In test [4] the target is T5, GST-Tceal7-N (1–33) (mouse) (UniProt A3KGA4).
T5 sequence: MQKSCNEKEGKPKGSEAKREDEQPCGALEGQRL
Described as above.

Results are given in words; binding and its absence hold for the method and conditions named. In cells and extracts the contact can be indirect. Some entries that bind do so weakly or less than the wild type. Where a sequence is shown, tags or fusion partners need not be part of it.

Regarding “6×Myc tagged Cdk2 (from UniProt P97377-1 1-346)”, in test [1], the binding result is given as “no binding (tested: 10 μg GST-Tceal7 on beads)”.

For “6×Myc tagged Cdk6 (from UniProt Q64261 1-326)”, the binding entry in test [1] was “no binding (tested: 10 μg GST-Tceal7 on beads)”.

In the case of “6×Myc tagged Cyclin A2 (from UniProt P51943 1-422)”, in test [1], the binding entry was “no binding (tested: 10 μg GST-Tceal7 on beads)”.

Take “6×Myc tagged Cyclin B1 (from UniProt P24860 1-430)”: the binding result in test [1] was “no binding (tested: 10 μg GST-Tceal7 on beads)”.

With “6×Myc tagged Cyclin D1 (from UniProt P25322 1-295)”, the binding entry in test [1] is “no binding (tested: 10 μg GST-Tceal7 on beads)”.

For “6×Myc-Cdk1 (1–297) (from UniProt P11440 1-297)”, the binding result in the test with 3×HA-Tceal7 (mouse) is reported as “binds”; in test [1], “binds”; in test [2], “binds”; in test [3] it was “binds”; in test [4], “no binding (tested: 10 μg GST fusion on beads)”.

As to “6×Myc-Cdk1-C (209–297) (from UniProt P11440 209-297) (domain or fragment)”, the binding entry in test [1] is given as “no binding (tested: 10 μg GST-Tceal7 on beads)”.

Consider “6×Myc-Cdk1-M (86–208) (from UniProt P11440 86-208) (domain or fragment)”, for which the binding entry in test [1] was “binds”.

For “6×Myc-Cdk1-N (1–85) (from UniProt P11440 1-85) (domain or fragment)”, the binding entry in test [1] is listed as “no binding (tested: 10 μg GST-Tceal7 on beads)”.

B1: 6×Myc tagged Cdk4 (protein, UniProt P30285 1-303)
chain: MAATRYEPVAEIGVGAYGTVYKARDPHSGHFVALKSVRVPNGGAAGGGLPVSTVREVALLRRLEAFEHPNVVRLMDVCATSRTDRDIKVTLVFEHIDQDLRTYLDKAPPPGLPVETIKDLMRQFLSGLDFLHANCIVHRDLKPENILVTSNGTVKLADFGLARIYSYQMALTPVVVTLWYRAPEVLLQSTYATPVDMWSVGCIFAEMFRRKPLFCGNSEADQLGKIFDLIGLPPEDDWPREVSLPRGAFAPRGPRPVQSVVPEMEESGAQLLLEMLTFNPHKRISAFRALQHSYLHKEESDAE
With B1, in test [1], the binding entry is recorded as “no binding (tested: 10 μg GST-Tceal7 on beads)”.

For the origin of these results see article PMC10094454.
